The full ranking holds about 13,000 compounds; the median of “IFI” is about 4, and the highest 2% start at about 17. The list shows a part of the results.
Assay: GSK_TCMDC: Inhibition Frequency Index (IFI). The number of non-kinase HTS assays where a compound showed > 50 % inhibition, expressed as a percentage of the number of such assays in which the compound was tested (-0 is zero)
Assay type: functional

Row | Compound | IFI [%]
1 | CN1CCc2ccc(NC(=O)Nc3cccc(C(=O)c4ccccc4)c3)cc2C1 | -0
2 | O=S(=O)(Nc1cc2c(cc1O)CCN(C1CCC1)CC2)c1ccc(-c2ccc(F)cc2)cc1 | 0
3 | O=C(c1cccs1)N(Cc1cccc(-c2ccc(CNCCc3ccccc3)cc2)c1)C1CCN(Cc2ccccc2)CC1 | 7.86
4 | O=C(Nc1ccc(F)cc1)NC1CCN(c2ccnc3cc(Cl)ccc23)C1 (stereo unspecified) | 0
5 | N=C(N)c1ccc(NN=Cc2ccc(Oc3ccc(C(=N)N)cc3)cc2)cc1 | 6.29
6 | COc1ccc(-c2cnc3ccc(NC4CCC(O)CC4)nn23)cn1 (stereo unspecified) | 5.3
7 | COc1cccc2cc(C(=O)N[C@@H](CC(C)C)C(=O)N[C@H](C=NN3CCOC3=O)CC(C)C)oc12 | 3.51
8 | O=C(Nc1ccc(OC2CCN(Cc3ccc(F)cc3)CC2)c(Cl)c1)c1ccco1 | 1.61
9 | Cc1ccccc1C1CCN(C2CCC(NC(=O)/C=C/c3ccc(F)cc3)CC2)CC1 (stereo unspecified) | 6.67
10 | Cc1[nH]c(C)c(-c2ccc(-c3ccc(C(F)F)cc3)nc2)c(=O)c1Cl | -0
11 | O=C(NCc1ccc(Cl)cc1)c1ccc(CN2CCCN(Cc3cccc(O)c3)CC2)cc1 | 8.13
12 | Cc1cc(N2CCC(NS(=O)(=O)c3ccccc3)CC2)nc(Nc2cccc(C#N)c2)n1 | 5.88
13 | N#CC(NC(=O)C=Cc1ccccc1)c1ccccc1 (stereo unspecified) | 0.72
14 | CC1CN(Cc2cccc(C#N)c2)CCN1c1ccc(NC(=O)c2cccs2)cc1 (stereo unspecified) | 5
15 | CC(C)(CNCc1ccc(F)c(F)c1)c1nc(-c2ccnc(N)n2)c(-c2ccc(Cl)c(O)c2)[nH]1 | 5.63
16 | Cc1cnc(Nc2ccccc2)nc1NCCC(=O)Nc1ccccc1 | -0
17 | CCCCCN1CCCCC(NS(=O)(=O)c2ccc(C(=O)Nc3cccc(C(F)(F)F)c3)cc2)C1 (stereo unspecified) | 3.06
18 | CN(C)CCC1CCN(CCS(=O)(=O)c2cccc(Nc3ccc(-c4cccc(F)c4)cn3)c2)CC1 | 14.8
19 | O=C(Cc1cccs1)NCC(c1ccccc1Cl)c1c[nH]c2ccccc12 (stereo unspecified) | 1.82
20 | COc1ccc(C2CC(=O)C3=C(C2)NC(C)=C(C(=O)OC(C)C)C3c2cccc(O)c2)cc1OC (stereo unspecified) | -0
21 | CC(C)CNC(=O)c1ccnc(-c2ccc(CNCCCc3ccccc3)cc2)c1 | 3.28
22 | O=C(c1ccc(Cl)cc1)N1CCCC(C(=O)N(Cc2nnc(-c3ccccc3Cl)o2)C2CC2)C1 (stereo unspecified) | 2.47
23 | CC(C)N1CCN(C(CN2CCN(CCCOc3ccc4ccccc4c3)CC2)c2ccc(F)cc2)CC1 (stereo unspecified) | 9.85

Row | Compound | IFI [%]
24 | C=CCOC(=O)N1CCC(CNCc2ccc(-c3ccc(-c4nc5cc(C(F)(F)F)ccc5[nH]4)cc3)cc2)C1 (stereo unspecified) | 9
25 | CC1CC(NCCCNc2cc(=O)c3ccccc3[nH]2)c2c(Cl)c(Cl)cc(Cl)c21 (stereo unspecified) | 6.38
26 | CCCCCCN1CCCN(Cc2ccc(C(=O)Nc3ccc(CC)cc3)cc2)CC1 | 13.5
27 | CN(C)c1ccc(CN2CCC(NC(=O)c3ccc(-c4cccc(C(F)(F)F)c4)s3)CC2)cc1 | 17.2
28 | O=C(Nc1cccc(CN2CCN(Cc3ccc(O)cc3)CC2)c1)c1cccc(C(F)(F)F)c1 | 4.1
29 | O=C(O)C[C@H](NC(=O)CCCNC(=O)c1cccc(-c2ccc(Cl)c(Cl)c2)c1)C(=O)O | -0
30 | COc1ccc(NC(=O)Nc2ccc(-c3ccc(-c4nc5cccc(C)c5[nH]4)s3)cc2)cc1 | 2
31 | Cc1cnc(NCCc2ccc(F)cc2)nc1N[C@@H](CC(C)C)C(=O)Nc1ccccc1 | 9.76
32 | Cc1[nH]c(C)c(-c2ccc(-c3ccc(OC(F)(F)F)cc3)nc2)c(=O)c1Br | 0.92
33 | COc1ccc(NC(=O)NCC2CCCN(CCCCCNC(=O)/C=C/c3ccc(Cl)c(Cl)c3)C2)c(OC)c1 (stereo unspecified) | 4.29
34 | O=C(Nc1ccc(-c2csc3nccn23)cc1)c1ccc(Cl)cc1 | 9.8
35 | CCc1ccccc1OCCCON1C(=N)N=C(N)NC1(C)C | 4.93
36 | Cn1nc(-c2ccc(Cl)cc2)c2cc(C(=O)NCCN3CCOCC3)sc21 | 1.92
37 | CC(C)NCc1ccc(-c2cccc(-c3nc4cc(F)ccc4[nH]3)c2)cc1 | 3.77
38 | CCOC(=O)C1=C(C)N=c2sc(=Cc3cc(Cl)ccc3O)c(=O)n2C1c1ccc(OC)cc1 (stereo unspecified) | 2.84
39 | COc1cccc(NC(=O)c2nc(N3CCN(c4ccncc4)CC3)ccc2Cl)c1 | 5.71
40 | N#Cc1ccc(C2CCN(CC[C@H](N)Cc3ccc(Cl)s3)CC2)cc1 | 12.5
41 | Cc1nc2ccccc2c(=O)n1/N=C/c1ccccc1[N+](=O)[O-] | 4.23
42 | c1ccc(CN2CCC(NCc3ccccc3-c3cccc(CNCc4ccc5c(c4)OCO5)c3)CC2)cc1 | 10.8
43 | COc1ccc2nccc([C@@H](O)CN3CCC(NCc4ccc5cccc(O)c5n4)CC3)c2n1 | 2.94
44 | CCC(=O)N1CCc2cc(Br)cc(S(=O)(=O)N3CC(C)CC(C)C3)c21 (stereo unspecified) | 0
45 | Cc1cc(N[C@@H](CC(C)C)C(=O)Nc2ccccc2)nc(NCCc2ccccc2)n1 | 11.4
46 | O=C(NC1CCN(Cc2ccccc2O)C1)c1cccc(C(F)(F)F)c1 (stereo unspecified) | 2.13

Source: ChEMBL document CHEMBL1157539, “Thousands of chemical starting points for antimalarial lead identification” (Nature, 2010)
